Measured values: PubChem BioAssay AID1346428 (National Center for Advancing Translational Sciences (NCATS), 2018)
Screen size: about 48,000 compounds; about 1,200 (2.5%) were called active. Roughly 2% stayed inconclusive and do not appear here.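 Rule for the calls: active = activation of at least 60% and not above a set upper limit (about 1 call in 100 departs from these limits); inconclusive = activation of 40% to 60%, or above that upper limit; inactive = activation under 40%.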 The list shows a part of the results.

target: Probable G-protein coupled receptor 32 (Homo sapiens) (UniProt O75388); test: qHTS for Agonists of Human Resolvin D1 Receptor DRV1; conditions: CHO-K1 GPR32 beta-arrestin PathHunter luminescence, 90 min; at 76.9 µM; hits give high values; zero percent set by DMSO-only wells; note: 0% is about no effect
Outline: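 Luminescent readout of beta-Gal complementation quantifies ligand-induced beta-arrestin association with GPR32 in CHO-K1 cells; 90 min compound incubation at 37 °C, detection 1 h at room temperature.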

Sequence of UniProt O75388 (O75388 whole entry, looked up): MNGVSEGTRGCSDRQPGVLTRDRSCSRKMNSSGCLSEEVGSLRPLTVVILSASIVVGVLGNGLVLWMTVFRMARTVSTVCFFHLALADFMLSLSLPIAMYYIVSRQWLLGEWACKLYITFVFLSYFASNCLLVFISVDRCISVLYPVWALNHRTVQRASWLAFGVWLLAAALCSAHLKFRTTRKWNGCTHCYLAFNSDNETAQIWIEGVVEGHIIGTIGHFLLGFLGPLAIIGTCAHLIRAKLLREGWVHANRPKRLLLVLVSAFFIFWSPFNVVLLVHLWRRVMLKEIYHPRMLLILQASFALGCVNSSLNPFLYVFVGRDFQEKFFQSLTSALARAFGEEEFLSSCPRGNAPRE

activation, inactive:
O=C(CSc1nc2c(c(=O)[nH]1)CCC2)Nc1ccccc1C(F)(F)F 3.47%
Cc1oc(-c2cccc(Cl)c2)nc1CN1CCC(C(=O)NCCCN2CCN(c3ccc(F)cc3)CC2)CC1 44.9%
CCn1cc(C(=O)NCc2ccccc2)c(=O)c2cc(S(=O)(=O)N3CCc4ccccc4C3)ccc21 -8.05%
CCOC(=O)C1CCCCN1S(=O)(=O)c1csc(C(N)=O)c1 (stereo not drawn) -9.79%
O=C(c1ccc2c(c1)CCCC2)N1CCN(c2nc3c(F)cccc3s2)CC1 -12%
COc1cc(C(c2c(C)[nH][nH]c2=O)c2c(C)[nH][nH]c2=O)ccc1OC(=O)c1cccc(C)c1 -44%
Cc1ccc(C2=CC(c3ccccc3F)n3c(nc4ccccc43)N2)cc1C (stereo not drawn) 23.2%
COc1ccc(CC(=O)NCc2ccc3c(c2)CCN3C(=O)c2ccccc2)cc1OC -13.7%
COc1ccc(C2=NC(c3ccncc3)=Nc3ccc(Br)cc3N2)cc1 -4.07%
CC(N)=O 0.222%
CN(C)c1ccc(-n2c(CCC(=O)O)ccc2-c2ccccc2)cc1 -16.1%
CN1CC[C@H](c2c(O)cc(O)c3c(=O)cc(-c4ccccc4Cl)oc23)[C@H](O)C1 -16.5%
CCOC(=O)C1=C(CN2CCCCC2)NC(=O)NC1c1cc(C)ccc1C (stereo not drawn) -5.7%
CCn1cc(C(=O)N2CCN(c3ccc(F)cc3)CC2)c(=O)c2cc(S(=O)(=O)N(C)C3CCCCC3)ccc21 2.18%
CCc1cccc(NC(=O)C2CCCN(S(=O)(=O)c3cccs3)C2)c1 (stereo not drawn) -1.45%
CC(C)(C)c1ccc(OCCn2cc(C(=O)c3ccco3)c3ccccc32)cc1 14%
COc1ccccc1N1CCN(C(CNC(=O)C(=O)NCc2ccc(C)cc2)c2cccnc2)CC1 (stereo not drawn) 26.7%
CCOC(=O)c1ccc(NC(=O)c2oc(=O)c3ccccc3c2-c2ccccc2)cc1 -11.2%
Cc1cccc(Cn2c(=O)n(CC3CCC(C(=O)N4CCOCC4)CC3)c(=O)c3sccc32)c1 (stereo not drawn) -3.61%
O=C(NCc1cccs1)c1ccc(Cn2c(SCc3cccc(F)c3)nc3cccnc32)cc1 -21.5%
CCCCOC(=O)c1ccc(NC(=O)Cn2nnc3sc4c(c3c2=O)CCCC4)cc1 -17.2%
CCc1cccc(NC(=O)C(Cc2ccccc2)NS(=O)(=O)c2ccc3c(c2)oc(=O)n3C)c1 (stereo not drawn) -5.84%
CCOC(=O)c1c(NC(=O)c2cc3nc(-c4ccc(OC)cc4)cc(C(F)(F)F)n3n2)sc2c1CCC(C)C2 (stereo not drawn) -12.7%
